Experimental data taken from article PMC3040668.
Results are given in words; binding and its absence hold for the method and conditions named. Binding seen in cells or lysates may run through a third protein. Some results given as binding are weak or reduced against the parent protein; the word gives no strength.

Sequences of proteins named here, by UniProt entry; tags and fusion partners are left off.
UniProt Q07812: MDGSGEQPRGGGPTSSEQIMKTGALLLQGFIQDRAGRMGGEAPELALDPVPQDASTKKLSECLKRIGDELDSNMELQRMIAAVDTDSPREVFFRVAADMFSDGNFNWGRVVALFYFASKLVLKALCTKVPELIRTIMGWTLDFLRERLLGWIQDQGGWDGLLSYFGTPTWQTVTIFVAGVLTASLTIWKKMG

Columns and labels:
[1] = molecular target: T1, Rubella virus capsid protein (in cells infected with the M33 strain) (Rubella virus (M33 strain)) (UniProt P08563); assay: co-IP; lysates of A549 cells infected with RV (M33), staurosporine for 0 to 6 h from 42 h; IP with antibodies to capsid, Bax or Bak overnight at 4°C, immunoblot; lysis in 1% CHAPS or 1% NP-40 buffer with 150 mM NaCl
T1 sequence: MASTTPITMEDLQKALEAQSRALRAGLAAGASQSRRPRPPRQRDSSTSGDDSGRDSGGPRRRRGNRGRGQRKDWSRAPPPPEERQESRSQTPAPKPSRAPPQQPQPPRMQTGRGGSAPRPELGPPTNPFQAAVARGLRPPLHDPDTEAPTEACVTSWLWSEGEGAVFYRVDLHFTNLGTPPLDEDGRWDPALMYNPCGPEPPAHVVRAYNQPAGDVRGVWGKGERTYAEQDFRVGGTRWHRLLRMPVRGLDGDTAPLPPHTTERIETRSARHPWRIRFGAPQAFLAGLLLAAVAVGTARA

[2] = molecular target: Bax (human (endogenous in A549)) (UniProt Q07812); assay: co-IP; lysates of A549 cells transiently expressing capsid constructs; IP with rabbit anti-Bax under non-denaturing conditions, immunoblot with goat anti-RV and mouse anti-Bax

Substance	binding [1]	binding [2]
Bax (from UniProt Q07812 1-192)	binds	–
CapNT (amino acid residues 1-152 of Rubella virus capsid) (from UniProt P08563 1-152) (domain or fragment)	–	no binding
CapΔRSP (amino acid residues 1-267 of Rubella virus capsid) (from UniProt P08563 1-267) (domain or fragment)	–	no binding
